The campaign covered roughly 52,000 compounds. About 4,300 (8.3%) were called active. No stated cut-off is given here; in the data, active means survival mostly below about 52% (no sharp cut-off); inactive means mostly above about 56%. Some of the results follow.
test system: DeltatarO mutant; assay: S. aureus survival, RN4220 and DeltatarO strains – OD600, teichoic acid synthesis inhibitors, primary screen (AID 463173); conditions: S. aureus RN4220 wild type/DeltatarO growth, OD600, 18 h, stronger effect = lower value, screened at 18.75 µg/mL (by protocol)

Question: With `CSc1nc(C)c(Oc2ccccc2)c(=O)n1C` as the compound, how does the survival read?
Answer: Its survival is inactive: 93%.

Question: `COc1ccc(C2CC(=O)c3c([nH]c(C(=O)OC4CCCCCC4)c3C)C2)cc1OC` (stereo unspecified) was tested. Which survival did it give?
Answer: The survival was inactive: 81%.

Question: `COc1cccc(CNC(=O)CCCn2nc(C)n3c(cc4sccc43)c2=O)c1` was tested. Which survival did it give?
Answer: Its survival is inactive: 75%.

Question: `O=C(NCc1ccccc1)C(c1ccco1)N(C(=O)c1csnn1)c1ccccc1` (stereo unspecified) was tested. Which survival did it give?
Answer: Its survival is inactive: 81%.

Question: With `COC(=O)c1ccc(Cn2nnc3sc4c(c3c2=O)CCCC4)cc1` as the compound, how does the survival read?
Answer: The survival was inactive: 74%.

Question: `COc1cc2nc(Nc3ccc(F)cc3)nc(N)c2cc1OC` was tested. Which survival did it give?
Answer: Its survival is inactive: 92%.

Question: For `CCc1ccccc1OCCSc1nnc(-c2cc(OC)c(OC)c(OC)c2)o1`, which survival is on record?
Answer: The survival was inactive: 106%.

Question: For `CCOC(=O)c1cccc(NC(=O)C(Cc2ccccc2)NS(=O)(=O)c2cccc3nsnc23)c1` (stereo unspecified), which survival is on record?
Answer: The survival was inactive: 73%.

Question: With `COc1ccc(NC(=O)CN(C)S(=O)(=O)c2cccc3nsnc23)cc1` as the compound, how does the survival read?
Answer: The survival was inactive: 106%.

Question: With `CC(C)Oc1ccc(CSCCN)cc1` as the compound, how does the survival read?
Answer: The survival was inactive: 90%.

Question: How did the survival turn out when `Cc1ccc(C)c(Nc2nc3nonc3nc2Nc2cccc(C)c2C)c1` was run?
Answer: Its survival is active: 2%.

Question: Which survival does the source give for `COc1ccc(Cl)cc1NC(=O)N1CCC(CN2CCCCCC2)CC1` here?
Answer: The survival was inactive: 79%.

Question: For `Cc1cccc(Cn2cc(C(=O)Nc3ccc(S(N)(=O)=O)cc3)ccc2=O)c1`, which survival is on record?
Answer: The survival was inactive: 88%.

Question: `O=C(C1CCN(S(=O)(=O)Cc2ccccc2)CC1)N1CCN(c2ccccc2F)CC1` was tested. Which survival did it give?
Answer: The survival was inactive: 70%.

Question: With `CCc1ccccc1NC(=O)C(C)n1nc(-c2ccc(C)c(C)c2)ccc1=O` (stereo unspecified) as the compound, how does the survival read?
Answer: The survival was inactive: 54%.

Question: For `CCCCNC(=O)CN1C(=O)COc2ccc(S(=O)(=O)N3CCCC3)cc21`, which survival is on record?
Answer: Its survival is inactive: 83%.

Question: Which survival does the source give for `COc1ccc(CNC(=O)CN2C(=O)CSc3ccc(S(=O)(=O)N4CCCC4)cc32)cc1` here?
Answer: The survival was inactive: 85%.

Question: Which survival does the source give for `CC1=C(C(=O)OCC2CCCCC2)C(c2ccc(Cl)cc2Cl)CC(=O)N1` (stereo unspecified) here?
Answer: Its survival is inactive: 82%.

Question: Which survival does the source give for `CSc1cccc(NC(=O)Cn2cnc(S(=O)(=O)N3CCCC3)c2)c1` here?
Answer: Its survival is inactive: 94%.

Question: For `O=C(Nc1ccccc1OCc1cc(=O)n2ccccc2n1)c1ccccc1F`, which survival is on record?
Answer: The survival was inactive: 83%.

Question: How did the survival turn out when `COc1ccc(/C=C/c2nc3ccccc3c(=O)n2-c2cccc(C(F)(F)F)c2)cc1` was run?
Answer: The survival was inactive: 91%.

Question: For `Cc1[nH]c(=O)[nH]c(=O)c1S(=O)(=O)N1CCN(c2cccc(Cl)c2)CC1`, which survival is on record?
Answer: Its survival is inactive: 65%.

Question: How did the survival turn out when `Cc1ccc(CN(C(=O)COc2ccc(Cl)cc2Cl)C2CCS(=O)(=O)C2)o1` (stereo unspecified) was run?
Answer: The survival was inactive: 87%.

Question: For `C=CCN(CC=C)C(=O)CCN1C(=O)c2ccccc2C1=O`, which survival is on record?
Answer: The survival was inactive: 89%.

Question: With `O=S1(=O)CCC(N=Cc2ccc(-c3ccc(Br)cc3)o2)C1` (stereo unspecified) as the compound, how does the survival read?
Answer: Its survival is inactive: 98%.

Question: For `CCN(CC)c1ccc(NC(=O)c2cc3c(=O)n4cccc(C)c4nc3n2C)c(C)c1`, which survival is on record?
Answer: Its survival is inactive: 61%.
